# PMC4336329 (PLoS ONE, 2015)
# About 2,200 (0.71%) of roughly 310,000 compounds showed an effect of 50% or more. The effect is printed as a negative number. The list shows a part of the results.
# Target: human ether-à-go-go-related gene (hERG) potassium channel (human, UniProt Q12809)
# Experiment: primary screen, population patch clamp on CHO cells stably expressing hERG
# Sequence of human ether-à-go-go-related gene (hERG) potassium channel (Q12809 whole entry, looked up): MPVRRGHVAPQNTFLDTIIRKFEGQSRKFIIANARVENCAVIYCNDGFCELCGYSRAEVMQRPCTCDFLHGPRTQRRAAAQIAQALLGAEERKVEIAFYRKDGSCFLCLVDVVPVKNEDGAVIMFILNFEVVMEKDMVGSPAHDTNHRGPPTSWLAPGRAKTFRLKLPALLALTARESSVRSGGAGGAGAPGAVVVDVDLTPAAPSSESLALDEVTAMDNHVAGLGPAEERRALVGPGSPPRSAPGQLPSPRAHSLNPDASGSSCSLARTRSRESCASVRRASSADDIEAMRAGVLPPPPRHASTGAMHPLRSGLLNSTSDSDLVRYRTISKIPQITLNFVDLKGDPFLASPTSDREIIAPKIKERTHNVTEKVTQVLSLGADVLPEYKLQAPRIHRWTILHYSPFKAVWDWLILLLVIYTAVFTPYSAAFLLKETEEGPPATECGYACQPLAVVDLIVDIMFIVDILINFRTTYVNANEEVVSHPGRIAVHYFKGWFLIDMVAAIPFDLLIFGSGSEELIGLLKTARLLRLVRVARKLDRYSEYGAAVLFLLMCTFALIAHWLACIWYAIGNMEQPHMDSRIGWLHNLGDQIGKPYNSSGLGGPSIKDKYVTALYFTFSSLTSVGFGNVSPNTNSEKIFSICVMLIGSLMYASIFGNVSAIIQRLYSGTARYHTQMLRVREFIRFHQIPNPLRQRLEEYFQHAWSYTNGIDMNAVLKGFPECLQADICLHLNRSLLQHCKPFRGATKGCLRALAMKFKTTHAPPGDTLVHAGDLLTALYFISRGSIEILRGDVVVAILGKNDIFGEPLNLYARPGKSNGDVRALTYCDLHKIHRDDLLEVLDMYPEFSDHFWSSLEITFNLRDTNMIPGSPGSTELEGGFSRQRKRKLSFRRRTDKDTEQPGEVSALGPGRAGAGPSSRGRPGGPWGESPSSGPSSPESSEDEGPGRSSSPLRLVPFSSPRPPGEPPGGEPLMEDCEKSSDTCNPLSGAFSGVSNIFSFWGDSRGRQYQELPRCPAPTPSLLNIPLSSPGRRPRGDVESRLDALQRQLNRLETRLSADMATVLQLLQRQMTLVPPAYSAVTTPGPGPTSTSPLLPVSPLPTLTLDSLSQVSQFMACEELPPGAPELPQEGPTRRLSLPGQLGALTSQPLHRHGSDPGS
row,Compound,"hERG current change (%, negative = inhibition) at 1uM [%]"
1,O=[N+]([O-])c1ccc(Sc2ccccc2Cl)nc1,15.4
2,O=C(O)c1ccc2c(c1)C1C=CCC1C(c1ccncc1)N2 (centres unmarked),11.4
3,COc1cc(/C=N/Nc2ccc(C(=O)O)cc2)cc(OC)c1OC,8.58
4,COc1ccccc1C1C(C(=O)c2cc3ccccc3o2)=C(O)C(=O)N1CCN1CCOCC1 (centres unmarked),19.6
5,O=C(CCC(=O)n1ncc2ccccc21)N1CCCCC1,11.6
6,COc1ccc(S(=O)(=O)Nc2ccccc2Cl)cc1NC(C)=O,14.8
7,CCOC(=O)COc1ccc(S(=O)(=O)N2CCN(c3ccccc3F)CC2)cc1,9.59
8,Cc1ccccc1C(=O)Nc1cccc(C#N)c1,9.35
9,CN(CC(=O)NCc1ccccn1)S(=O)(=O)c1cc(Cl)ccc1Cl,1.85
10,CCOc1ccc(NC(=O)c2ccccc2OCC(=O)c2ccc(C)cc2)cc1,10.9
11,CN1CCN(CC(=O)N/N=C\c2c[nH]c3ccccc23)CC1,17.8
12,CN(CC(=O)Nc1ccc(OC(F)(F)F)cc1)C(=O)/C=C/c1cc2c(cc1[N+](=O)[O-])OCO2,-1.01
13,CCCn1nnnc1NCc1ccc(OC)cc1,14.8
14,O=C(NCc1nc(-c2ccc(C(F)(F)F)cc2)no1)c1cccs1,10.5
15,N=c1c2c(ncn1CCN1CCOCC1)Oc1ccc3ccccc3c1C2c1ccccc1 (centres unmarked),-5.37
16,O=C(NN1CCOCC1)c1cn(-c2ccccc2)nc1-c1cccs1,8.52
17,O=C(NC1(C(F)(F)F)NC(=O)N(Cc2ccco2)C1=O)c1cccs1 (centres unmarked),19.2
18,CCOc1ccc(NC(=O)CN(C)C(=O)c2cc(S(=O)(=O)N(C)C)ccc2N2CCCC2)cc1OCC,11.7
19,CN(C)c1ccc(S(=O)(=O)c2ccc(Cl)cc2)cc1,4.44
20,Clc1ccc(-c2csc3ncnc(Cl)c23)cc1,10.5
21,CCOC(=O)C1CCc2sc(N)c(C#N)c21 (centres unmarked),6.97
22,CCCN(Cc1cc2cc(C)ccc2[nH]c1=O)C(=O)c1cccc(OC)c1,-1.25
23,COc1ccc(F)cc1C(=O)C1CCCN(Cc2cnc(C)s2)C1 (centres unmarked),1.46

row,Compound,"hERG current change (%, negative = inhibition) at 1uM [%]"
1,CCc1ccc(-c2cc3c(=O)n(CC(=O)NCCCN4CCN(Cc5ccccc5)CC4)nc(C)n3n2)cc1,4.42
2,Cc1cc2ncn(/N=C/c3ccc(-c4ccccc4)o3)c2cc1C,-0.761
3,CS(=O)c1ccccc1-c1nc(-c2cc(C(F)(F)F)cc(C(F)(F)F)c2)no1 (centres unmarked),-21.1
4,Cn1nc(C(F)(F)F)cc1Oc1ncc(C(F)(F)F)cc1Cl,12.5
5,COc1ccccc1C(=O)NCCC(=O)N1CCN(S(=O)(=O)c2ccc(Cl)cc2)CC1,-8.49
6,O=C(O)c1cccc(NC(=S)N/N=C/c2ccccn2)c1,6.18
7,Cl.N=c1n(CCN2CCCCC2)c2ccccc2n1CC(O)c1cccc(Br)c1 (centres unmarked),-41.7
8,O=C(CN1CCN(Cc2ccccc2Cl)C1=O)NCc1cccnc1,8.23
9,COc1ccc(-c2[nH]c(-c3ccc(Cl)cc3)nc2SCC(=O)Nc2nccs2)cc1,16.2
10,CCc1ccc(S(=O)(=O)NCc2cn3ccsc3n2)s1,12.6
11,Cc1cc(=O)n2nc(N3CCC(C(=O)NCc4ccccc4Cl)CC3)sc2n1,3.87
12,S=c1[nH]nc(Cc2cccs2)n1-c1ccccc1Cl,6.39
13,CN1C(=O)/C(=C\N2CCc3ccccc32)C(=O)NC1=S,11.7
14,CCCOc1ccc(C2NC(=S)NC(C)=C2C(=O)c2ccccc2)cc1OC (centres unmarked),9.95
15,O=C(NCc1nnc(SCC(=O)N2CCN(c3ccccc3)CC2)o1)c1c(F)cccc1Cl,2.49
16,CCn1c(=O)[nH]c2cc(Cl)c(Cl)cc21,-14.2
17,CCCOc1ccccc1N1C(=O)CC(N2CCOCC2)C1=O (centres unmarked),7.58
18,COc1ccccc1N1CCN(C(CNC(=O)c2ccc3c(c2)OCO3)c2cccnc2)CC1 (centres unmarked),3.12
19,COc1cc2c(cc1OC)/C(=C/C(=O)c1ccccc1)NCC2,13.2
20,CC1=CCC2C(=O)N(c3cc(C)on3)C(=O)C2C1 (centres unmarked),-4.4
21,O=[N+]([O-])c1ccc(N2CCN(CCOCCO)CC2)c([N+](=O)[O-])c1,-12.6
22,CC1CN(C(=O)Nc2ccc3snnc3c2)c2ccccc21 (centres unmarked),6.96
23,CCOCCCN1CN(Cc2ccco2)CNC1=S,13.5

row,Compound,"hERG current change (%, negative = inhibition) at 1uM [%]"
1,O=C(NCc1ccccn1)c1ccc(Cn2cc(Br)cn2)o1,9.57
2,Cn1nc(-c2ccc(C(=O)Nc3cccc(Cl)c3)cc2)c2ccccc2c1=O,5.56
3,COc1ccc(Cl)cc1NC(=O)CN1C(=O)NC2(CCCC2)C1=O,14.5
4,CCN(C(=O)COC(=O)c1cccc(-n2cnnn2)c1)C1CCCCC1,17.6
5,O=C(/C=C\NCC(=O)c1ccccc1)c1ccccc1,-2.05
6,Cc1ccc(C(=O)Nc2ccc(Oc3ccc(C(=O)O)c(C(=O)O)c3)cc2)cc1C,0.709
7,COc1ccc(NC(=O)CSc2nnc(-c3ccco3)n2N)cc1Cl,12
8,CCCCCCCCCOC(=O)C1N2C(=O)[C@@H](NC(=O)COc3ccccc3)[C@H]2SC1(C)C (some centres unmarked),6.58
9,O=C(Nc1nc(-c2ccco2)cs1)c1ccccc1,9.77
10,c1ccc(-c2nnc(CSc3nncs3)o2)cc1,7.17
11,COc1ccc(N2CC(C(=O)NCc3ccco3)CC2=O)cc1 (centres unmarked),11.2
12,Cc1noc(C)c1C(=O)NCc1ccccc1,17
13,CN(C(=O)c1c[nH]c(=O)cc1C(F)(F)F)c1ccc(Cl)c(Cl)c1,8.51
14,CC1CN(Cc2ccccc2)c2nc3c(c(=O)n(CC(=O)O)c(=O)n3C)n2C1 (centres unmarked),18
15,CN(C)S(=O)(=O)c1ccc(C(=O)OC2CCOC2=O)cc1 (centres unmarked),12.8
16,O=C(COc1ccc(F)cc1)c1ccc2c(c1)CCCC2,14.5
17,C#C[C@]1(O)CC[C@H]2[C@@H]3CCC4=Cc5nc6nc7ccccc7n6cc5C[C@]4(C)[C@H]3CC[C@@]21C,-9.33
18,O=C(NO)c1ccccc1O,12.8
19,COc1ccc(C(=O)N/N=C/c2ccc(N3CCOCC3)o2)cc1OC,3.78
20,Cc1ccc(/C=C2\CC(C)CC3=C2NC(=S)NC3c2ccc(C)cc2)cc1 (centres unmarked),-7.34
21,COC(=O)Nc1ccc(S(=O)(=O)NC2CCS(=O)(=O)C2)cc1 (centres unmarked),15
22,COc1ccccc1N1CCN(c2ncnc3sc(C)c(-c4ccccc4)c23)CC1,15.1
23,Cc1ccc(N2C(=O)c3n[nH]c(C)c3C2c2ccccn2)cc1 (centres unmarked),7.52

row,Compound,"hERG current change (%, negative = inhibition) at 1uM [%]"
1,CCOC(=O)C1=C(C)NC(=O)NC1c1cc(Br)c(O)c(OC)c1 (centres unmarked),-1.87
2,O=[N+]([O-])c1cc([N+](=O)[O-])c(Oc2c(F)ccc(F)c2F)cc1NN1CCCCC1,12.8
3,COc1ccc([C@H]2CC(=O)C=C(c3cc(C=O)ccc3OC)C2)cc1,10.4
4,COc1ccc(C2N(C(=O)N(C)C)CCN2S(=O)(=O)c2ccc(OC)cc2)cc1 (centres unmarked),-2.39
5,COc1cccc(-c2nnc(SCc3ccc(C#N)cc3)n2Cc2ccco2)c1,-22
6,COc1ccc(NS(=O)(=O)c2cccc(NC(=O)c3cnccn3)c2)cc1Br,10.3
7,Cc1ccc(NC(=O)c2cccc3c2C(=O)N(C2CCCCC2)C3)c(Cl)c1,10.4
8,S=C(N/N=C1\CCc2ccccc21)NC1CCCCC1,12.4
9,C/C(CCC1CC(C)(C)OC1=O)=N\NC(N)=S (centres unmarked),-0.472
10,O=C(OCc1ccc(Cl)c(Cl)c1)c1ccccn1,5.25
11,CCOC(=O)N1CCN(C(=O)CSCC(=O)Nc2nc(-c3ccc4c(c3)OCO4)cs2)CC1,-5.62
12,Cc1cc(-c2ccccc2)nc(N(C)NC(=O)c2cccc(C(F)(F)F)c2)c1S(C)(=O)=O,7.36
13,Cn1c(=O)c2c(nc(NCCCO)n2C/C=C/c2ccccc2)n(C)c1=O,6.68
14,COc1ccc(OC)c2sc(NC(=O)C3COc4ccccc4O3)nc12 (centres unmarked),0.426
15,COc1ccc(NC(=O)CCCN2C(=O)CCC2=O)cc1Cl,9.43
16,CCOC(=O)C1CCN(CC(=O)Nc2ccc(OC)c(Cl)c2)CC1,-2.11
17,CCCCN(C(=O)NC(=O)Nc1cc(C)ccc1C)S(C)(=O)=O,13.9
18,Cc1ccn2c(=O)nc(SCC(=O)Nc3cc(C)on3)nc2c1,1.05
19,O=C(COC(=O)c1ccc(Br)o1)Nc1cccc(S(=O)(=O)N2CCCCCC2)c1,2.14
20,Cc1c(-c2nc(-c3ccncc3)no2)cccc1[N+](=O)[O-],16.2
